Assay results as given in paper PMC4336329 (PLoS ONE, 2015).
About 14,000 (4.5%) of roughly 310,000 compounds showed an effect of 50% or more. Effects have a minus sign here. Some of the results follow.

target: human ether-à-go-go-related gene (hERG) potassium channel (human, UniProt Q12809); test: primary screen, population patch clamp on CHO cells stably expressing hERG
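Note: peak tail current of the secondary pulse compared with the same well before compound.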

Chain of human ether-à-go-go-related gene (hERG) potassium channel (Q12809 whole entry, looked up): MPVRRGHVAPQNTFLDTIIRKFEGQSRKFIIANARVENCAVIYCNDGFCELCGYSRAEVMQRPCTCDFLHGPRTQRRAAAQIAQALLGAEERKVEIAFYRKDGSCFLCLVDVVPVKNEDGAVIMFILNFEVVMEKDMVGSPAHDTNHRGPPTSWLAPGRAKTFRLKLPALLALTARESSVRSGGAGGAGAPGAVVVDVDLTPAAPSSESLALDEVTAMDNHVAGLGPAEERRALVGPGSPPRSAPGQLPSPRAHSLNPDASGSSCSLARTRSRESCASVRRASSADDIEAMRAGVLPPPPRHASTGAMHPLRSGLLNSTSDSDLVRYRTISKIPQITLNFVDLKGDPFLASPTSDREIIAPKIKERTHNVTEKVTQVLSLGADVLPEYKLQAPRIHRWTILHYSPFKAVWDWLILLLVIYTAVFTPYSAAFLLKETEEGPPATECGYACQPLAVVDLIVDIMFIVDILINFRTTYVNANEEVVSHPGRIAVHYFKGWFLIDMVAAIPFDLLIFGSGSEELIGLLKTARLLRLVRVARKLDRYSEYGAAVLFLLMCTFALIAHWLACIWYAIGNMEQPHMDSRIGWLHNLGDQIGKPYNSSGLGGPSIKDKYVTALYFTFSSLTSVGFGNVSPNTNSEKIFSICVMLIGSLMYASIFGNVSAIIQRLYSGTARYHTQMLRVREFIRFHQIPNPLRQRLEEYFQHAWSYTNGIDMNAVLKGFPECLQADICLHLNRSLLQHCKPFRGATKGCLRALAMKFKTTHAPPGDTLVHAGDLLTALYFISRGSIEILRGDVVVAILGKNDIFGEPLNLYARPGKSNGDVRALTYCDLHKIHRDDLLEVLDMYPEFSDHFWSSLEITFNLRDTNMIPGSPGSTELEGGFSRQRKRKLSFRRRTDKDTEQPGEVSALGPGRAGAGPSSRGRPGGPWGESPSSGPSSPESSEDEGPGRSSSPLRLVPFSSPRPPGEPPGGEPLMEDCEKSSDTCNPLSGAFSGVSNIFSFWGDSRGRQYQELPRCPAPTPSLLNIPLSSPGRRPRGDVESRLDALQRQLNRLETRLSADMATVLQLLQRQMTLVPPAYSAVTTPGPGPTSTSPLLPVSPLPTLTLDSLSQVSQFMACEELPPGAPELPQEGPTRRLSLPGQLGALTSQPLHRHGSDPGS

Structure (SMILES) | hERG current change (%, negative = inhibition) at 10uM [%]
COc1cc(C2C(C(=O)c3ccc(C)o3)=C(O)C(=O)N2c2cc(C)on2)ccc1OCc1ccccc1 (centres unmarked) | -12.2
O=C(CSC(=S)N1CCCCC1)N1N=CCC1c1ccccc1 (centres unmarked) | -25.3
CN(/C(=N\S(=O)(=O)c1ccccc1)C(F)(F)F)c1ccccc1 | -3.25
O=C(c1ccc(Cn2cc(Br)cn2)cc1)N1N=C(C(F)F)CC1(O)C(F)F (centres unmarked) | 5.3
Cc1nnc(NC(=O)c2ccc(S(=O)(=O)C(F)F)cc2)s1 | -6.86
O=C(CN1C(=O)C2(OCCCO2)c2ccccc21)NCCc1ccccc1 | -0.278
O=C(NCc1ccco1)NCC(F)(F)F | 11.6
O=C(CCc1ccccc1)Nc1nc2ccc(S(=O)(=O)N3CCOCC3)cc2s1 | 18.5
CCC(=O)c1ccc(N2CCN(C(=O)c3ccccc3)CC2)c(F)c1 | -70.1
CCOC(=O)N/N=C/c1ccc(OCCSc2ccc(Cl)cc2)c(OCC)c1 | -9.33
Cc1nc2c(C)cccn2c(=O)c1NC(=O)c1ccco1 | -6.74
Cc1cc(C(=O)OCC(=O)N(C)c2c(N)n(Cc3ccccc3)c(=O)[nH]c2=O)c(C)n1-c1ccccc1 | 3.48
CS(=O)(=O)N1CCN(C(=O)c2cc(-c3cccnc3)nc3ccc(Cl)cc23)CC1 | 0.512
Cc1ccc(S(=O)(=O)c2c(C)c(C)c(C)[nH]c2=O)cc1 | 14.9
CCOc1ccccc1NC(=O)C1CCCN(S(=O)(=O)c2cccc3cccnc23)C1 (centres unmarked) | -8.06
Cc1nc(C)c(-c2csc(Nc3ccc(F)cc3)n2)s1 | -25.1
C=CCCN(Cc1ccccc1)S(=O)(=O)c1ccccc1Br | 3.42
CC(C)(C)NCCOCCOc1ccccc1-c1ccccc1.O=C(O)C(=O)O | -28.6
O=C(c1ccco1)N1CCN(C(=O)c2sccc2-c2ccccc2)CC1 | -8.12
Cc1ccc(CCN2CC(C(=O)NCCCN3CCC(C)CC3)CC2=O)cc1 (centres unmarked) | 9.28
CC(NC(=O)Nc1cccc(F)c1)c1ccc2c(c1)OCO2 (centres unmarked) | 15.4
CCOc1ccc(S(=O)(=O)N2CCC(C(=O)NCCN3CCOCC3)CC2)cc1C | 1.77
COc1ccccc1NC(=O)N1CCN(C)CC1 | 17.9

Structure (SMILES) | hERG current change (%, negative = inhibition) at 10uM [%]
COc1ccc(/C=N/NC(=O)c2cc(-c3ccccc3OC(C)C)nc3ccccc23)cc1CN1CCOCC1 | -4.54
CN1/C(=C\C(=O)c2cncc(Br)c2)C(C)(C)c2ccccc21 | 2.55
CNC(=O)c1sc(-c2ccc(Cl)cc2)nc1C | 9.02
CN(C)S(=O)(=O)Nc1ccccn1 | 16.5
CCOC(=O)c1ccc(NC(=O)CCc2nnc3ccc(N4CCN(C)CC4)nn23)cc1 | 6.9
Cn1cnc([N+](=O)[O-])c1Nc1ccccc1O | 11.6
COc1ccc(S(=O)(=O)N2CCN(C(=O)CC(C)C)CC2)cc1 | 12
NC(=S)Nc1cccc(F)c1 | 8.59
Cc1nc2c(F)c(F)c(C(F)(F)F)c(F)c2[nH]1 | -8.71
O=C(Cc1cccs1)Nc1cccc(-c2nc3cc4ccccc4cc3[nH]2)c1 | 1.42
Br.O=C(Cn1c(NCCCO)nc2ccccc21)c1cccc(Br)c1 | -9.87
Cc1ccc(Cn2ccc(NC(=O)c3cc4nc(-c5ccco5)cc(C(F)(F)F)n4n3)n2)cc1 | 3.04
O=C(O)CSc1nnc(COc2cccc3cccnc23)n1-c1ccc(Cl)cc1 | 8.71
CN(CC(=O)N1CCN(Cc2ccccc2)CC1)S(=O)(=O)c1ccc(F)cc1 | -28.7
Cc1ccc(C(=O)NCc2ccco2)cc1S(=O)(=O)Nc1cccc(C)c1C | -32.2
c1cnc(-c2nnc3n2CCCCC3)cn1 | 17.3
Cc1cccc(C)c1Nc1nnc(SCC(=O)Nc2sccc2C#N)s1 | -9.87
C=CCOc1ccc(Br)cc1CNCCO.Cl | 0.469
CCOc1ccc(N2C(=O)CC(N(C)Cc3ccccc3)C2=O)cc1 (centres unmarked) | 25.8
COc1ccc(OCC(O)CNCc2ccco2)cc1 (centres unmarked) | 1.32
CCn1c(=O)cc(OCC(=O)N2CCN(c3cccc(C(F)(F)F)c3)CC2)c2ccccc21 | -48.2
CC(c1ccccc1)C(Cc1nc2ccccc2[nH]1)c1nc2ccccc2[nH]1 (centres unmarked) | -20.9
O=C(N/N=C/C=C\c1ccccc1[N+](=O)[O-])c1cc(-c2ccccc2)nc2ccccc12 | 12.4

Structure (SMILES) | hERG current change (%, negative = inhibition) at 10uM [%]
Cc1cc(=O)[nH]c(-n2[nH]c3c(c2=O)CCCC3)n1 | 8.28
N#CCCn1c(=O)n(CCC#N)c2ccccc21 | 12
CC(C)Cn1c(=O)c(C(=O)NCc2ccccn2)c(O)c2ccccc21 | -12.9
O=C(c1ccco1)N1CCN(Cc2cc(=O)c(OCc3ccc(F)cc3)co2)CC1 | -62.2
Cc1cc(OCC(=O)N2CCOCC2)cc2oc(=O)c3ccccc3c12 | -0.691
COc1cc(CCC(=O)NNC(=O)c2ccc(C)cc2)cc(OC)c1OC | 4.59
Cc1ccc(S(=O)(=O)N=S(CC2CC2(Cl)Cl)CC2CC2(Cl)Cl)cc1 (centres unmarked) | -19.8
COc1ccccc1N1CCN(C(=O)c2cc3ccccc3[nH]2)CC1 | 0.954
COc1ccc(CCN(C)C(=O)CSc2ncnc3sccc23)cc1OC | 11.2
C/C(=N\Nc1ccc(F)cc1F)c1ccc(F)cc1 | 9.16
Cc1ccc(CNC(=O)COC(=O)c2ccc(S(=O)(=O)N3CCCC3)cc2)cc1 | -8.84
Cc1cccc(N2CCN(C(=O)c3cccn4c(=O)c5c(C)c(C)sc5nc34)CC2)c1C | 21.6
COc1ccccc1/C=N/NC(=O)Cn1cnc([N+](=O)[O-])n1 | 9.01
c1ccc(CNc2ncnc3sc4c(c23)CCC4)nc1 | -19.8
Cc1ccc(C)c(NC(=O)COC(=O)CC2c3ccccc3CCN2S(=O)(=O)c2ccc(F)cc2)c1 (centres unmarked) | 5.51
O=C(CCn1c(=O)c2cccn2c2cccnc21)NCc1cccc(Cl)c1 | 6.6
COc1ccc(S(=O)(=O)N2CCCC(C(=O)N3CCOCC3)C2)cc1OC (centres unmarked) | 24.3
O=S1(=O)CC2SC(=S)N(Cc3ccccc3)C2C1 (centres unmarked) | -3.44
COc1cc(-c2[nH]nc3c2C(c2ccco2)C(C#N)=C(N)O3)cc(OC)c1OC (centres unmarked) | 9.37
O=C(NCCc1ccccc1)C1CCC(Cn2c(=O)c3ccccc3n(Cc3cccc(Cl)c3)c2=O)CC1 (centres unmarked) | 10.9
Cc1ccc(N=C2NC(=O)S/C2=C\c2ccco2)cc1 | 6.9
O=C(O)C1(c2ccc(Cl)cc2)CCC1 | 3.46
Cc1cc(-c2n[nH]c(=S)n2/N=C/c2ccco2)n[nH]1 | 7.99

Structure (SMILES) | hERG current change (%, negative = inhibition) at 10uM [%]
NC(=O)C1(N2CCCCC2)CCN(C(=O)CCCn2c(=O)[nH]c3ccsc3c2=O)CC1 | 4.45
O=S(=O)(Nc1ccccn1)c1cccc(S(=O)(=O)c2ccc(Cl)cc2)c1 | 0.562
CC(C)C(=O)NNC(=O)c1ccccn1 | 9.18
Cc1cc(C)cc(N2C(=O)NC(=O)/C(=C/c3cccn3-c3ccc(Cl)cc3)C2=O)c1 | 6.93
C/C(=N\NC(N)=O)c1ccccc1 | 44.4
COc1ccc(-n2cnnc2SC(C)C(=O)Nc2cccc([N+](=O)[O-])c2)cc1 (centres unmarked) | -59.3
CN(C)c1ccc(/C=C(\C#N)c2ccccn2)cc1 | -6.97
Nc1ccc(C(=O)N2CCCC2)cc1CS(=O)(=O)c1ccc(Cl)cc1 | -4.18
COc1ccc(-n2c(-c3ccco3)nc3c(cnn3-c3ccccc3C)c2=O)cc1 | 6.61
OCCC1CN(CC#Cc2ccccc2)CCN1Cc1ccccc1F (centres unmarked) | -7.93
CCCCn1c(N)c(N(CCOC)C(=O)COC(=O)COc2ccc(CC)cc2)c(=O)[nH]c1=O | 1.17
CCN1CCN(CC(O)COCc2cc(OC)c(OC)c(OC)c2)CC1.Cl (centres unmarked) | 22.2
CCc1n(CC(O)COCc2ccccc2)c2ccccc2[n+]1C.[I-] (centres unmarked) | 13.5
Cc1ccc2c(c1)/C(=N/N1C(=O)c3ccccc3C1=O)C(=O)N2 | 4.24
Cc1ccc(SCC(=O)Nc2ccc(S(N)(=O)=O)cc2)cc1 | 31.3
CCCCn1nnc(NC(=O)c2ccco2)n1 | 0.862
CC(Sc1nc(-c2ccccc2)cc(C(F)(F)F)n1)C(=O)N1CCC(C(N)=O)CC1 (centres unmarked) | -39
CCOCCCNC(=O)C(NC(=O)c1ccccc1O)c1ccc(Cl)cc1 (centres unmarked) | 0.22
Cc1ccc(-c2nnc(SCC(=O)O)n2N)cc1 | -2.12
CCN1CCN(Cc2nc3c(c(=O)n(C)c(=O)n3C)n2Cc2cccc3ccccc23)CC1 | -47.9
